We go through 73 sequences from the supplement of paper PMC10338343.

± gives the standard deviation. Whole data set: some 6,600 sequences, median “pre-steady-state target cleavage rate” near 0.07, cut for the highest 2% near 0.72. Only a part is listed here, and it is no random draw.

The assay deals with MIWI (PIWIL1) piRISC loaded with Kctd7 piRNA (30 nt). The experiment in a line: pre-steady-state target cleavage rate (min^-1); MIWI and MILI are mouse PIWI proteins and EfPiwi is from a freshwater sponge; tags in brackets are library labels; higher = faster piRNA-guided slicing of the target. The note with it: guide: Kctd7 piRNA 5'p-UGUUAAUCUCUCAGAGAAGGUGACAGUGAU; auxiliary factor: 500 nM mouse GTSF1. The protocol: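 Cleave-'n-Seq: a library of target RNAs (target site embedded in constant flanks, ACAGCATTCCGCGTTAGTGATATCCG... 5' flank; DNA-blocked outside the site) at 0.1 nM was incubated with 1 nM active mouse MILI or MIWI piRISC (synthetic 5'-monophosphorylated piRNA guide) with or without 500 nM mouse GTSF1 at 33 °C for 1 min to 16 h. Uncleaved targets were sequenced and normalised to non-target controls, and the pooled three trials were fitted to a burst-and-steady-state model to give the pre-steady-state cleavage rate (min^-1; k3 is constrained to at most 1e-4). Sequence is the target site only; target names encode pairing extent (gX:gY) and contiguous / 1-mismatch / 2-mismatch / bulge geometry. Fits with R² ≤ 0 are excluded.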
Regarding AUCACUGUCACCUUCUCUGUGAGAUAAACA, the “pre-steady-state target cleavage rate” value was 0.172 ± 0.017.

With UAGUGACAGUCCUUCUCUGAGAGACUUAACA, the “pre-steady-state target cleavage rate” value worked out at 0.00857 ± 0.0034.

Consider UACACUGACACCUUCUCAGAGAGAUUAACA, for which the “pre-steady-state target cleavage rate” value was found to be 0.222 ± 0.022.

Consider UAGUGAGUCAGCUACUCUGAGAGAUUAACA, for which the “pre-steady-state target cleavage rate” value was determined as 0.373 ± 0.027.

Consider AGUCACUGUCACCUUCUCUGAGAGAUUAACA, for which the “pre-steady-state target cleavage rate” value is 0.833 ± 0.057.

Take UAGACUGUCACCUACUCUGAGAGAAUAACA: the “pre-steady-state target cleavage rate” value is 0.189 ± 0.037.

Regarding UAGUCUGUCACCUUCUCUCAGAGAUAAACA, the “pre-steady-state target cleavage rate” value was 0.0533 ± 0.0059.

Consider UAGUGUGUCACCUUCUCUGAGUGAUUUACA, for which the “pre-steady-state target cleavage rate” value was 0.0154 ± 0.0075.

On to UAGUCUGACACCUUCUCUGAGAGAUUAACA, for which the “pre-steady-state target cleavage rate” value stood at 0.609 ± 0.033.

Turning to UAGAGUGUCACCUUCUGUGAGAGAUUAACA, the “pre-steady-state target cleavage rate” value turned out to be 0.578 ± 0.028.

UAGUGUGUCACCUUCUCUGAGAGAUGAACA: the “pre-steady-state target cleavage rate” value was determined as 0.0565 ± 0.012.

UUCACUGUCACCAACUCUGAGAGAUUAACA: the “pre-steady-state target cleavage rate” value stood at 0.616 ± 0.053.

Regarding UUCACUGUCACCUUGUCUGAGAGAUUUACA, the “pre-steady-state target cleavage rate” value was determined as 0.671 ± 0.12.

Turning to UUGACUGUCACCUUCACUGAGAGAUUAACA, the “pre-steady-state target cleavage rate” value came to 0.429 ± 0.029.

In the case of UAGUGUGUCAGCUUCUCUGAGAGAUAAACA, the “pre-steady-state target cleavage rate” value worked out at 0.223 ± 0.02.

Consider AUCACUGUCACCUUCUCUGAGGGAUUAACA, for which the “pre-steady-state target cleavage rate” value came out at 0.75 ± 0.041.

Regarding UAGACUGACACCUUCUCUGAGAGAUUUACA, the “pre-steady-state target cleavage rate” value came to 0.281 ± 0.044.

As to UUCUACUGUCACCUUCUCUGAGAGAUUAACA, the “pre-steady-state target cleavage rate” value amounted to 0.677 ± 0.038.

UAGUCUGUGUGCUUCUCUGAGAGAUUAAGA: the “pre-steady-state target cleavage rate” value amounted to 0.00541 ± 0.0021.

In the case of UUCACUGUCACCUUCUCUGAGUGAUUAAGA, the “pre-steady-state target cleavage rate” value was 0.0149 ± 0.0054.

Regarding UAGUGACAGAGCUUCUCUGAGAGAUUAAGA, the “pre-steady-state target cleavage rate” value is 0.00666 ± 0.0032.

With UAGUGAGUCACCUUCUCUGAGGGAUUAACA, the “pre-steady-state target cleavage rate” value was 0.598 ± 0.032.

UACACUGUCACCUUCUCUGAGACUUUAAGA: the “pre-steady-state target cleavage rate” value worked out at 0.00614 ± 0.004.

As for UAGACUGUCACCUUCACUGAGAGAUUAACA, the “pre-steady-state target cleavage rate” value was found to be 0.517 ± 0.042.

On to UAGUGACUCACCUAUCUCUGAGAGAUUAACA, for which the “pre-steady-state target cleavage rate” value worked out at 0.158 ± 0.017.

For UAGUGACUCUCCUUGUCUGAGAGAUUAACA, the “pre-steady-state target cleavage rate” value was found to be 0.0206 ± 0.0036.

For UACACUGACACCUUCUCUGAGAGAUAUUGA, the “pre-steady-state target cleavage rate” value was found to be 0.0445 ± 0.017.

For UAGUCAUGUCACCUUCUCUGAGAGAUUAACA, the “pre-steady-state target cleavage rate” value is 0.571 ± 0.028.

In the case of AUCACUGUCACCUUCUCAGAGAGAUUUUGA, the “pre-steady-state target cleavage rate” value came out at 0.242 ± 0.059.

Regarding UAGACUGUCACUUUCUCUGAGAGAUUAACA, the “pre-steady-state target cleavage rate” value was 0.8 ± 0.043.

For UAGUGAGUCACCUUCUCUGAGAGGUUAACA, the “pre-steady-state target cleavage rate” value amounted to 0.258 ± 0.019.

Regarding UUCACUGACACGUUCUCUGAGAGAUUAACA, the “pre-steady-state target cleavage rate” value was found to be 0.546 ± 0.026.

Regarding UAGUGACACACCUUCUCGGAGAGAUUAACA, the “pre-steady-state target cleavage rate” value amounted to 0.0476 ± 0.005.

For the sequence UAGACUGUCACCUUCACUGAGAGAAUAACA, the “pre-steady-state target cleavage rate” value stood at 0.402 ± 0.081.

Consider UAGUGACAGACCUUGUCUGAGAGUUUAACA, for which the “pre-steady-state target cleavage rate” value is 0.0133 ± 0.0041.

Turning to UAGUGACUCCACCUUCUCUGAGAGAUUAACA, the “pre-steady-state target cleavage rate” value worked out at 0.415 ± 0.04.

With UAGUCUGACACCUUCUCUGAGAGAUUUUGA, the “pre-steady-state target cleavage rate” value was determined as 0.00378 ± 0.0025.

In the case of AUCACUGUCACCUUCUCUGAGGAUUAACA, the “pre-steady-state target cleavage rate” value was 0.186 ± 0.051.

Regarding UAGACUGUCUCCUUCUCUGAGAGAUUAUGA, the “pre-steady-state target cleavage rate” value is 0.0484 ± 0.0098.

Consider AUCACUGUCACCUUCUCUGACAGAUUUACA, for which the “pre-steady-state target cleavage rate” value is 0.0146 ± 0.0032.

For UAGUCUGUCACGUUCUCUGAGAGAUUAUGA, the “pre-steady-state target cleavage rate” value is 0.0167 ± 0.0043.

UAGUGACAGACCUUCUCUGAGAGGAUUAACA: the “pre-steady-state target cleavage rate” value was 0.0286 ± 0.0057.

AUCACUGUCACCUUCUCUGAGAGAUUUAGA: the “pre-steady-state target cleavage rate” value was determined as 0.108 ± 0.024.

As to UAGACUGUCACCUACUCAGAGAGAUUAACA, the “pre-steady-state target cleavage rate” value was 0.087 ± 0.0073.

For the sequence UACACUGUCACCUAGACUGAGAGAUUUUGA, the “pre-steady-state target cleavage rate” value was found to be 0.00547 ± 0.0048.

As to UAGUGUGUCAGCUUCUCUGAGAGAUUUUGA, the “pre-steady-state target cleavage rate” value is 0.00691 ± 0.0036.

Take AUCUCUGUCACCUUCUCUCAGAGAUUAACA: the “pre-steady-state target cleavage rate” value amounted to 0.105 ± 0.0088.

As to UACACUGUGACCUUCUCUGAGAGAUUUACA, the “pre-steady-state target cleavage rate” value came out at 0.308 ± 0.042.

On to UAGUGUGAGACCUUCUCUGAGAGAUUAAGA, for which the “pre-steady-state target cleavage rate” value was determined as 0.0976 ± 0.027.

Take UAGUGACUCACCAACUCUGAGAGAUUAAGA: the “pre-steady-state target cleavage rate” value is 0.00473 ± 0.0031.

UAGUGACACACCUUCUCUGAGUGUUUAACA: the “pre-steady-state target cleavage rate” value turned out to be 0.00603 ± 0.004.

For UACUCUGUCACCUUCUCUGAGAGAUUUUGA, the “pre-steady-state target cleavage rate” value came to 0.0843 ± 0.017.

As for UAGUGAGUCACCUUCUCUGUGAGAUUUUGA, the “pre-steady-state target cleavage rate” value is 0.00479 ± 0.0046.

In the case of UAGUGAGUGACCUUCUCUGAGAGUUUAACA, the “pre-steady-state target cleavage rate” value came out at 0.269 ± 0.042.

As to UAGUGACAGUGGAACUCUGAGUCAUUAACA, the “pre-steady-state target cleavage rate” value worked out at 0.0112 ± 0.0083.

In the case of UAGUGUCACACCUUCUCUGAGAGAUUAUGA, the “pre-steady-state target cleavage rate” value came out at 0.099 ± 0.028.

On to AUCACUGUCACCUUCUCUGAGAGAAUAUGA, for which the “pre-steady-state target cleavage rate” value came out at 0.0904 ± 0.029.

For the sequence UACACUGUCACCUUCUCUGAGUGAUUAACA, the “pre-steady-state target cleavage rate” value is 0.0334 ± 0.0073.

Turning to AACUCUGUCACCUUCUCUGAGAGAUUAACA, the “pre-steady-state target cleavage rate” value stood at 0.715 ± 0.034.

As to UACACUGUCACCUUCUCUGAGAGAUUAGCA, the “pre-steady-state target cleavage rate” value is 0.266 ± 0.039.

As to UACACUGUCACCUUCUCUGAUAGAUUAACA, the “pre-steady-state target cleavage rate” value was 0.604 ± 0.03.

AUCACUGUCUCCUUCUCUGAGAGAAUAACA: the “pre-steady-state target cleavage rate” value was found to be 0.335 ± 0.056.

As to UAGUCUCUCACCUACUCUGAGAGAUUAACA, the “pre-steady-state target cleavage rate” value came to 0.0366 ± 0.0071.

With UAGUGACACACCUUCACUGAGUGAUUAACA, the “pre-steady-state target cleavage rate” value was 0.0157 ± 0.005.

Turning to UACACUGACACCUUCUCUGUGAGAUUAACA, the “pre-steady-state target cleavage rate” value was determined as 0.181 ± 0.019.

In the case of UAGUGUGUCACCUUCUCUGAGAGAAUAACA, the “pre-steady-state target cleavage rate” value was 0.32 ± 0.052.

For the sequence UAGUGUGUCACUCUUCUCUGAGAGAUUAACA, the “pre-steady-state target cleavage rate” value worked out at 0.3 ± 0.025.

As for UACACUGUGACCUUCUCUGAGACAUUAACA, the “pre-steady-state target cleavage rate” value is 0.143 ± 0.011.

As to UAGUGUGUCACCUUCUCUGAGAAAUUAACA, the “pre-steady-state target cleavage rate” value stood at 0.173 ± 0.019.

For the sequence UACAGUGUCACCUUCUCUCAGAGAUUAACA, the “pre-steady-state target cleavage rate” value is 0.119 ± 0.013.

For the sequence UACACUGUCACCUUCUCUGAGAGUAAUUGA, the “pre-steady-state target cleavage rate” value is 0.0959 ± 0.034.

Consider UUCAGUGUCACCUUCUCUGAGACAUUAACA, for which the “pre-steady-state target cleavage rate” value was determined as 0.188 ± 0.016.

On to UAGUGUGUCACCUUCUCUGAGAGAUUAUACA, for which the “pre-steady-state target cleavage rate” value is 0.236 ± 0.035.
